The text below walks through data of the supplement of paper PMC11417369.

The list shows a part of the results.

The subject of this test is PF3D7_0420300 AP2 domain 1 (GST-tagged). Description: gcPBM binding intensity (ln(normalized median fluorescence intensity)); higher = stronger DNA binding. The method, boiled down: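 Alexa488 anti-GST antibody, scanned at 488 nm, detected GST-tagged P. falciparum DNA-binding domains that had been expressed in E. coli and incubated for 1 h on an Agilent 4 × 180k array. The array carried primer-extended double-stranded 36-bp intergenic genomic probes and negative controls. Binding intensity is the highest Masliner-normalised natural-log median intensity across replicate spots of either orientation of each probe.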
For the sequence “TTTATTGAATAAAATGCACACGCATGCGTTATTTAT [CACACA_site9154]”, the “gcPBM binding intensity (ln)” value amounted to 9.18.

For the sequence “TATATGTTATATTTAACACACATATAAGGTACATAT [CACACA_site612]”, the “gcPBM binding intensity (ln)” value was 9.47. Consider “TTCTCATAATTAAATAGTACATATTTTAATAATCAC [XGTACX_site6116]”, for which the “gcPBM binding intensity (ln)” value stood at 8.98. In the case of “TTTTATAAACAGAGGGGTACGGGAAAAAAAAAAAAA [XGTACX_site1480]” it was 9.29; in that of “TGTTAAAGAGAAAGTACTACACATATTATGTGTTTT [XGTACX_site1435]”, 9.24; in that of “TTAAAAAAAATTATTTGTACTTAAAAATTTTATATT [XGTACX_site8751]”, 8.83. To “AGAAAAAAAAAACACACACACACACCGTCAATATAA [CACACA_site7895]” belongs 10.1; to TTTTTAAACCATGTTGTGCACATTTTTTTTGGATTT, 9.38. In the case of “ATATATTGGAGCACAACACACACAAGTATATATATG [CACACA_site8435]” it was 9.93. On to “AAAAAAAAAAAAAAAACATGCACAAATTATAAGTGA [TGCATGCA_site378]”, for which the “gcPBM binding intensity (ln)” value was 9.35.

For “ACTACATAATACTATTCACACATTTTTTTTTTTTTT [CACACA_site5794]”, the “gcPBM binding intensity (ln)” value was 9.58. In the case of “AAAAAAAAAAAAAACACACAGAACAATATATAAATA [CACACA_site982]” it was 9.79; in that of “AAAAAAAAATACAAAATAGCAATAAATACACAAACG [GTGCAC_negctrl_site707]”, 10.1; in that of “TTCCTTTTTTTTTATTGTACAAAAATATCAAAAAGG [XGTACX_site8505]”, 8.81. In the case of “ATTTTTTTTTTTTTTTTGGGGGGGTATACTTTTAAA [CACACA_negctrl_site1020]” it was 10.8. On to “ATAGAATAAATTTTGTCATTTATTCCTTATATATAA [GTGCAC_negctrl_site227]”, for which the “gcPBM binding intensity (ln)” value came out at 8.98. In the case of “TAAAAATAGGAATACGCACACGATGATTAATTTATA [CACACA_site1835]” it was 9.27.

As to “AATTATATAACAAATTGTACGAATGAAAATATTATT [XGTACX_site4237]”, the “gcPBM binding intensity (ln)” value was 9.4. In the case of “TTTATATATATTTATACACACAAACATAATACTACT [CACACA_site5161]” it was 9.55; in that of “TATAATGAGGATGATAGTACGTATTAGTATAAAAAA [XGTACX_site6623]”, 9.34.

With “TTTTTAATTTTATATACACACATAAAATATATGAAG [CACACA_site3145]”, the “gcPBM binding intensity (ln)” value was 9.18. In the case of “TGTTATTATAACATTTTTTTCAAAATAGCTTTAGAA [CACACA_negctrl_site266]” it was 8.59; in that of “AATTTATAAGAATAAAGTACTAAAGATACAACTTTA [XGTACX_site7153]”, 9.1. To “ATAATACCCAAGCACACACACACACCGATATATATA [CACACA_site8344]” belongs 10.4.

With “ATTAAAGGAAGCAAAACATGCAACAGCAATATTGCA [TGCATGCA_site452]”, the “gcPBM binding intensity (ln)” value was found to be 9.14.
